Experimental data reported in the RNAGym collection of RNA variant scans (doi:10.1073/pnas.2313332121).
Variants at the floor of the assay are shown more often than the library holds them.

B1: TPR 5TU (parent)
chain: GGAUCUUCUCGAUCUAACAAAAAAGACAAAUCUGCCACAAAGCUUGAGAGCAUCUUCGGAUGCAGAGGCGGCAGCCUUCGGUGGCGCGAUAGCGCCAACGUUCUCAACUAUGACACGCAAAACGCGUGCUCCGUUGAAUGGAGUUUAUCAUG

Variants of: B1
Test: polymerase ribozyme fitness, log enrichment relative to wild type (log ratio); higher = more active; in vitro selection for triplet polymerase activity
Outline: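 Genotype fitness is the logarithm of its enrichment divided by wild-type enrichment, using inverse-variance-weighted averages of replicates. That logarithm is base 2. Enrichment was measured by Illumina sequencing of input and output libraries from one triplicate in vitro selection round, with frozen incubation at −7 °C, on PCR-built, transcribed mutant libraries of each subunit of a heterodimeric triplet polymerase ribozyme, retaining genotypes with ≥10 input reads and ≥1 read per output.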

Row | Variant | polymerase ribozyme fitness (log ratio)
1 | GGAUCUUCUCAAUCUAACAAAAAAGACCAAUCUGCCACAAAGCUUGAGAGCAUCUUCGGAUGCAGAGGCGGCAGCCUUCGGUCGCGCGAUAGCGCCAACGUUCUCAACUAUGACACGCAAAACGCGUUCUCCGUUGAAUGGAGUUAAUCACG | ≤ -4.2
2 | GGAUCUUCUCAAUCUAACAAAAAAGACUAAUCUGCCACAAAGCUUGAGUGCAUCUUCGGAUGCAGAGGCGGCAGCCUUCGGUGGCGCGAUGGUGCCAACGUUCUGAACUAUGACACGCAAAACGCGUGCUCCGUUGAAUGGAGUUUAUCAUG | ≤ -4.2
3 | GGAUCUUCUCAAUCUAACAAAAAAGACAGAUCUGCCACAAAGCAUGAGAGCAUCUUCGGAUGCAGAGGCGGUAGCCUUCGGUGGCGCGAUAGCUCCAGCGUUCUCUACUAUGACACGCAAUACGCGUGCUCCGUUGAAUGGCGUUUAUCAUG | ≤ -4.2
4 | GGAUCUUCUCAAUCUAACAAAAAAGACAACUCUGCCACAAAGCUUGGGAGCAUCUUCGGAAGCAGAGGCGGCAGCCUUCGGUGGCUCGAUAGCGCCAACGUUCUCAACUAUGACACGCAAAACGCGUGCUCCGUUGAAUGGAGUUUAUCAUG | ≤ -4.2
5 | GGAUCUUCUCAAUCUAACAAAAAAGACAAGUCUGCCACAAAGCUUGAGAGCAUCUUCGGAUGCAGAGGCGGCAGCUGUCGACGGCGCCAUAGCGCCAACGGUCUCAACUAUGACACGCAAAACGCGUGCUCCGUUGAAUCGAGUUUAUCAUG | ≤ -4.2
6 | GGAUCUUCUCAAUCUAACAAAAAAGACAAUUCUGCCACAAAGCUUGAGAGCAUCUUCGGAUGCAGAGGCGGCAGCCUUCGGUGGCGCGAUAGCGCCAACGUUCUGAACUAUGACACGCAAAACGCGUGCUCCGUUGAAUGGAGUUUAUCGUG | ≤ -4.2
7 | GGAUCUUCUCAAUCUAACAAAAAAGACAAAUCUGCCACGAAGCUUUAGAGUAUCUUCGGAUGCCGAGGCGACAGCCUUCGGUGGCGCGAUAGCGACAACGUUCUCAACUAUGACACGCAAGACGCGUGCUCCGUUGAAUGGAGUUUAUCAUG | ≤ -4.2
8 | GGAUCUUCUCAAUCUAACAAAAAAGACAAAUCUGCCACUAAGCUUGAGAGCAUCUUCGGAUGCAGAGGCGGCAGCCUUCGGUGGCGCGAUAGCGCCAACGUUCUCAACUAUGACACGCAAAACGCGUGCUCCGUUGAAUGGAGUUUAUCAUG | -3.28
9 | GGAUCUUCUCAAUCUAACAAAAAAGACAAAUCUGCCACUCAGCUUGAGAGCAUCUUCGGAUGCAGAGGCGGCAGCCUUCGGUGGCGCGAUAGCGCCAACCUUCUCAACUAUGACACGCAAAACGCGUGCUCCGUUGAAUGGAGUUUAUCAUG | ≤ -4.2
10 | GGAUCUUCUCAAUCUAACAAAAAAGACAAAUCUGCCACUAAGCUUGAGAGCAUCUUCGGAUGCAGAGGCGGCAGCCUUCGGUGGCGCGAUAGCGCCCACGUUCUCAACUAUGACACGCAAAACGCGUGCUCCGUUGAAUGGAGUUUAUCAUG | -3.26
11 | GGAUCUUCUCAAUCUAACAAAAAAGACAAAUCUGCCACAGAGCUUGAGCGCAUCUUCGGAAGCAGAGGCGGCAGCCUUCGAUGGCGCGAUAGCGCCAACGUUCUCAACUAUGACACGCAAAACGAGUGCUCCGUUGAAUGGAGUUUAUCAUG | ≤ -4.2
12 | GGAUCUUCUCAAUCUAACAAAAAAGACAAAUCUGCCACAGAGCUUGAGAGCAUGUUCGGAUGCAGAGGCGGCAACCUUCGGUCGCGCGAUAGCGCCAACGUUCUGAACUAUGACACGCAAAACGCGUGCUCCGUUGAAUGGAGUUUAUCAUG | ≤ -4.2
13 | GGAUCUUCUCAAUCUAACAAAAAAGACAAAUCUGCCACAGAGCUUGAGAGCAUCUUCGGAUGCAGACGCGGCAUCCUUCGGUGACGCGAUAGCGCCAACGUUCUCAACUAUGACACGCAAAACGGGUUCUCCGUUGAAUGGAGUUUAACAUG | ≤ -4.2
14 | GGAUCUUCUCAAUCUAACAAAAAAGACAAAUCUGCCACAGAGCUUGAGAGCAUCUUCGGAUGCAGAGGCGGCAACCUUCGGUGGCGCGCUAGCGGCAACGUUCUCAACUAUGACACGCACAACGCGUGCUCCGUUGAAUGAAGUUUAUCAUG | ≤ -4.2
15 | GGAUCUUCUCAAUCUAACAAAAAAGACAAAUCUGCCACAACGCUUGAGAACAUCUUCGGAUGCAGAGGCGGCAGCCUUCGGUGGCGCGAUAGCGGCAACGUUCUCAACUAUGACACGCAAAACGCGUGCUCCGUUGAUUGGAGUUUAUCAUG | ≤ -4.2
16 | GGAUCUUCUCAAUCUAACAAAAAAGACAAAUCUGCCACAAGGCUAGAGAGGAUCUUCGGCUGCAGAGGCGGCAGCCUUCGGUGGCACAAUAGCGCCAACGUUCUCAACUAUGACACGCAAAACGUGUGCUCCGUUGAAUGGAGUUUAUCAUG | ≤ -4.2
17 | GGAUCUUCUCAAUCUAACAAAAAAGACAAAUCUGCCACAAUGCUUGAGAGCAUCUUCGGGUGCAGAGGCGGCAGCCCUCGGUGGCGAGAUAGCGCCAACGUUCUCAACUAUGACACGCAAAACGCGUGCUCCGUUGAAUGGAGUUUAUCAUG | ≤ -4.2
18 | GGAUCUUCUCAAUCUAACAAAAAAGACAAAUCUGCCACAAAGCUUGAGCGCAUCUUCGGAUGCAGAGGCGGCAGCCUUCGGUGGCGCGAUAGCGCCAACGUUCUCAACUAUGACACGCAAAACGCGUGCUCCGUUGAAUGGAGUUUAUCAUG | ≤ -4.2
19 | GGAUCUUCUCAAUCUAACAAAAAAGACAAAUCUGCCACAAAGCUUGAGGGCAUCUUCGGUUGCAGAGGCGGCAGCCUUCGGUGGCGCGAUAGCGCCAACGUUCUCAACUAUGACACGCAAAACGCGUGCUCCGUUGAAUGGAGUUUAUCAUG | -2.63
